# Laboratory results as given in PubChem BioAssay AID686978 (National Center for Advancing Translational Sciences (NCATS), 2013).
# Hit rate of the full screen: of about 420,000 compounds, about 64,000 (15%) were called active. Inconclusive results, whose numbers are uncertain, are shown with a selection of clear calls. The call rests on the fitted dose curve; in most records, active means well fitted inhibition curve with a large enough effect; inconclusive means small, poorly fitted or top-dose-only effect; inactive means flat fitted curve, though single readings scatter. No potency is given beside an inconclusive call; the fits are too rough.
# Experiment: qHTS for Inhibitors of human tyrosyl-DNA phosphodiesterase 1 (TDP1): qHTS in cells in absence of CPT; further: nearly all actives have a fitted effect of over 55% in size
# Settings: DT40 Tdp1-/- hTDP1 cells, no CPT, ATP luminescence, 48 h; activity change, negative = growth inhibition: at 46.2 µM (top of the series)
# In short: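 Chicken DT40 Tdp1-/- cells stably complemented with human TDP1 were seeded at 400 cells/well with DMSO in place of 20 nM camptothecin. After compound pinning, cells grew at least 48 hr at 37 °C; viability read by CellTiter-Glo luminescence.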
# On the % scale 0 is the no-effect control and ±100 the full control effect; potency means the concentration at half of the fitted maximal effect; tags describe the fitted curve by direction and shape.
SMILES,"activity change, negative = growth inhibition",Potency
CC(C)N1C(=O)N(c2ccccc2)C(C)(O)CC1(C)C (stereo unspecified),inactive: -9.56%,–
O=C(CCNC(=O)c1ccc(Cl)cc1)Nc1ccccc1N1CCCCC1,–,"inconclusive [inhibitor, single point]"
CCCOC(=O)c1ccc(NC(=O)c2ccc(Br)o2)cc1,–,"inconclusive [inhibitor, single point]"
COc1ccc(C2=Nn3c(C)nnc3SC2)cc1,–,"inconclusive [inhibitor, single point]"
CC(CNC(=O)c1ccc(Nc2nc3ccccc3n3nnnc23)cc1)c1ccccc1 (stereo unspecified),–,"inconclusive [inhibitor, partial curve, poor fit]"
CCc1nnc(NC(=O)CN2C(=O)CCC2=O)s1,–,"inconclusive [inhibitor, full curve]"
CCOC(=O)c1sc(N/N=C/c2cccc(C)c2)nc1C,–,"inconclusive [inhibitor, single point]"
Cc1cc(C)cc(NC(=S)N=Nc2c(O)n(C)c3ccc(S(=O)(=O)N4CCOCC4)cc23)c1,–,active: 4.61 µM
CC(=O)N1CCOc2ccc(S(=O)(=O)N3CCC(C(=O)NCc4ccc(Cl)cc4)CC3)cc21,–,"inconclusive [inhibitor, single point]"
COc1ccc(C2CC(=O)c3c([nH]c(C(=O)OC(C)C)c3C)C2)cc1OC (stereo unspecified),–,active: 20.6 µM
COc1ccc(S(=O)(=O)N2CCOC2CNC(=O)C(=O)NCc2ccc3c(c2)OCO3)cc1C (stereo unspecified),–,"inconclusive [inhibitor, single point]"
CCc1cccc(NC(=O)COC(=O)CSc2ccc(C)cc2)c1,inactive: -28.7%,–
CCOC(=O)N1CCN(C(=O)Cc2ccc(Cl)cc2)CC1,inactive: -12.4%,–
CCC(=O)N1CCN(c2nc3c(C)cccc3s2)CC1,–,"inconclusive [inhibitor, single point]"
C/C(=N\Nc1nc2ccccc2[nH]1)c1cccs1,–,"inconclusive [inhibitor, single point]"
O=C(C1CCN(S(=O)(=O)N2CCC3(CC2)OCCO3)CC1)N1CCC(Cc2ccccc2)CC1,inconclusive: -32% [inhibitor],–
O=C1c2cccc3cccc(c23)N1Cc1cccc(F)c1,inactive: -29.7%,–
Fc1cccc(CSc2ncnc3c2ncn3C2CCCCO2)c1 (stereo unspecified),–,"inconclusive [inhibitor, partial curve]"
Cc1cc(C)n(-c2ccc3nnc(C)n3n2)n1,inactive: 1.03%,–
Nc1c(C(=O)NCc2ccccc2)sc2nc(N3CCOCC3)c3c(c12)CCCC3,–,active: 20.6 µM
Cc1ccc(P(=O)(CC(=O)O)c2ccc(C)cc2)cc1,–,"inconclusive [inhibitor, full curve, poor fit]"
CC(=O)Nc1ccc(OCc2ccc3c(c2)OCO3)cc1,–,"inconclusive [inhibitor, single point]"
CCCCNC(=O)C1(C)CCN1C(=O)c1oc2ccccc2c1C (stereo unspecified),–,"inconclusive [inhibitor, single point]"

SMILES,"activity change, negative = growth inhibition",Potency
CCc1c(C)sc(NC(=O)CN2CCN(C(=O)c3ccco3)CC2)c1C(=O)OC,–,"inconclusive [inhibitor, single point]"
Cc1ccc([N+](=O)[O-])c(Oc2ncnc3c2oc2ccccc23)c1,–,"inconclusive [inhibitor, single point]"
CC(C)(C(=O)N1CCC1(C)C(=O)NS(=O)(=O)c1ccccc1Cl)c1ccccc1 (stereo unspecified),inactive: 6.7%,–
O=S1(=O)CCN2C(=N1)SC1=C2CCN(Cc2ccccc2)C1,inactive: -16%,–
Cc1ccc2nc(SCC(=O)N3CCN(C(=O)c4ccco4)CC3)[nH]c2c1,–,"inconclusive [inhibitor, single point]"
O=C(Nc1ccccc1C(=O)NCc1cccnc1)c1ccccc1F,inactive: 23.2%,–
CCCCCCCCNc1ccc(/C=C/c2ccnc3ccccc23)cc1,–,"inconclusive [inhibitor, single point]"
COC(=O)c1c(C)[nH]c(O)c1C=Nc1ccc(C(C)C)cc1,–,active: 18.4 µM
COc1cc(C(O)c2nc(-c3ccccc3OC)cs2)ccc1F (stereo unspecified),–,"inconclusive [inhibitor, single point]"
COc1ccc(OCC(=O)Nc2nc3cc4c(cc3s2)OCCO4)cc1,inactive: -7.8%,–
COc1cc(/C=C/CNC[C@H]2O[C@@H](n3cc(C)c(=O)[nH]c3=O)C[C@@H]2O)ccc1O,–,"inconclusive [inhibitor, full curve, poor fit]"
O=C(CSc1nc2ncc(Br)cc2[nH]1)c1ccc([N+](=O)[O-])cc1,–,"inconclusive [inhibitor, partial curve, poor fit]"
COc1ccc(Br)cc1CN(C)C(=O)c1ccccc1SCC(=O)N1CCCC1,–,"inconclusive [inhibitor, single point]"
N#C/C(=C\c1ccc(Cl)cc1)c1nc2ncccc2[nH]1,–,"inconclusive [inhibitor, single point]"
CN(C)c1ncc2nc(CCc3ccccc3)c(=O)n(-c3ccccc3)c2n1,inactive: -7.59%,–
O=S(=O)(Nc1ccc(OC(F)(F)F)cc1)c1cccc2nonc12,inactive: -26.6%,–
Cc1ccc(N2C(=O)CSC23C(=O)N(CC(=O)Nc2ccc(C)cc2C)c2ccccc23)cc1 (stereo unspecified),–,"inconclusive [inhibitor, single point]"
COc1ccc2c(Sc3ccccc3)c(C(=O)N3CCC(C)CC3)[nH]c2c1,–,"inconclusive [inhibitor, single point]"
Cc1ccc(/C=C/C(=O)NCc2ccccn2)o1,inactive: -11.9%,–
CC(C)C(O)C1CCN(Cc2nc(Cc3ccccc3Cl)no2)CC1 (stereo unspecified),–,"inconclusive [inhibitor, single point]"
Cc1ccc(NC(=O)C(=O)NCCN2CCN(Cc3ccc([N+](=O)[O-])cc3)CC2)cc1,–,"inconclusive [inhibitor, full curve]"
CCCCNC(=O)c1nc(-c2ccncc2)oc1-c1ccc(OC(F)(F)F)cc1,inactive: 9.7%,–
Cc1ccc(-c2nn3c(C)nnc3s2)cc1N,inactive: 0.155%,–
